Reference: PubChem BioAssay AID1476 (National Center for Advancing Translational Sciences (NCATS), 2009)
In all, about 200,000 compounds went through this assay and about 4,500 (2.2%) were called active. The shares of active, inactive and inconclusive entries below differ from those in the screen. Calls come from the whole dose curve; as a rule, active = well fitted inhibition curve with a large enough effect; inconclusive = small, poorly fitted or top-dose-only effect, or effect the other way; inactive = flat fitted curve, though single readings scatter. Potencies beside an inconclusive call are fits to weak or partial responses and may not hold up.
Note: nearly all actives have a fitted effect of over 40% in size.
Potency is the fitted concentration of half-maximal effect; tags give direction and shape of the fitted curve.
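Throughout, for max response, negative = inhibition: plate controls were enzyme without inhibitor for no effect and buffer without enzyme for full effect.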

Each compound was assayed against Cruzipain (Trypanosoma cruzi) (UniProt P25779) (assay: qHTS Assay for Promiscuous and Specific Inhibitors of Cruzain (without detergent)). Conditions: purified cruzain, Z-FR-AMC fluorescence, no detergent.
Sequence of UniProt P25779 (P25779 whole entry, looked up): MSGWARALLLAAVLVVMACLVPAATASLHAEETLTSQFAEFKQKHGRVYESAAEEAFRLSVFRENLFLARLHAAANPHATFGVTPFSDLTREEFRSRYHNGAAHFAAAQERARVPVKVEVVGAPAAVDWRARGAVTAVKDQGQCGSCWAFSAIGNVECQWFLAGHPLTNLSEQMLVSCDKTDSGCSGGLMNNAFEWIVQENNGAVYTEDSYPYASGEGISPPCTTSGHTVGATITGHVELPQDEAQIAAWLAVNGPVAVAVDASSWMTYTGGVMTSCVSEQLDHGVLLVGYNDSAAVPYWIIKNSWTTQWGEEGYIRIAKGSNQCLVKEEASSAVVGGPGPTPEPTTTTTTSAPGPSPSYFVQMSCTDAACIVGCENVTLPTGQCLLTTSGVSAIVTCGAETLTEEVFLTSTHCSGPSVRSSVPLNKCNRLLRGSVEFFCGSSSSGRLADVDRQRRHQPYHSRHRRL
Procedure, shortened: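 Detergent-free condition (0.00005% Triton X-100) in acetate buffer pH 5.5 with DTT. 1.5 nM enzyme and compound were pre-mixed 15 min, then 2 uM Z-FR-AMC substrate added; reaction progress from fluorescence change between first and third reads (60 s).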
CCOC(=O)CNS(=O)(=O)c1ccc(C)cc1 was tested, and the max response, negative = inhibition was inactive: -5.16%. For O=c1[nH]c(NC2CCCCC2)nnc1Cc1ccccc1, the Potency was inconclusive: 39.8 µM [inhibitor, single point]. With CN1CCN(c2ncnc3ccc(-c4ccc5c(c4)OCO5)cc23)CC1 the max response, negative = inhibition was inactive: -12.6%. In the case of COc1ccc(CN(Cc2cc3cc(OC)c(OC)cc3[nH]c2=O)C(=O)NC2CCCCC2)cc1, the Potency is reported as inconclusive: 39.8 µM [activator, single point]. CCOc1ncccc1C(=O)OCC(=O)N1CCN(S(=O)(=O)c2ccc(Cl)cc2)CC1 was tested, and the Potency was inconclusive: 25.1 µM [activator, single point]. For COc1ccccc1N1CCN(S(=O)(=O)c2ccc3c4c(cccc24)C(=O)N3C)CC1, the Potency was inconclusive: 39.8 µM [activator, single point]. In the case of CN(c1cccc(Cl)c1)S(=O)(=O)c1cccc(C(=O)Nc2nc3ccccc3[nH]2)c1, the Potency is reported as inconclusive: 39.8 µM [inhibitor, single point]. COc1cc2c(cc1NC(=O)CSCC(=O)O)oc1ccccc12 was tested, and the max response, negative = inhibition was inactive: -18.5%. In the case of COc1cc(C(=O)NCC(c2cccnc2)N2CCc3ccccc32)cc(OC)c1OC (stereo not drawn), the Potency is reported as inconclusive: 25.1 µM [activator, partial curve]. For Cn1c(SCc2ccc(C(F)(F)F)cc2)nc2c([nH]c3ccccc32)c1=O, the max response, negative = inhibition was inactive: -11.1%. With CCSc1nc(-c2ccc(OC)cc2)cc(-c2ccccc2)c1C#N the max response, negative = inhibition was inactive: -13.6%. For Cc1ccccc1Cn1c(=O)n(Cc2ccc(Cl)cc2)c(=O)c2cccnc21, the max response, negative = inhibition was inactive: 19.4%. With COc1cc(Cn2c(N)c(C(=O)NCc3ccco3)c3nc4ccccc4nc32)cc(OC)c1OC the Potency was inconclusive: 25.1 µM [activator, partial curve]. For CCOc1ccc(CCNC(=O)c2nnc(Cc3cc(OC)c(OC)c(OC)c3)o2)cc1OCC, the Potency was inconclusive: 39.8 µM [activator, single point]. With C#CCn1c(=NC(=O)c2ccc(S(=O)(=O)N3CCc4ccccc4C3)cc2)sc2cc(S(N)(=O)=O)ccc21 the Potency was active: 10 µM. For C=CCSc1nc2sc3c(c2c(=O)n1CC=C)CCc1ccccc1-3, the Potency was inconclusive: 39.8 µM [inhibitor, single point]. In the case of Cc1cc(C)cc(N(C(=O)C(F)(F)F)C(C(=O)NC2CCCCC2)c2cccs2)c1 (stereo not drawn), the Potency is reported as inconclusive: 39.8 µM [inhibitor, single point]. In the case of CCOc1cc2[nH]c(=O)n(CCCCC(=O)N3CCCCCC3)c(=O)c2cc1OCC, the Potency is reported as inconclusive: 31.6 µM [activator, single point].
